In the antibiotic and cytotoxicity screens of Wong et al. (2023):
The list shows a part of the results.

Experiments:
HSkMC = human skeletal muscle cells; test: cytotoxicity call (relative viability < 0.9); conditions: 10 µM
S. aureus RN4220 = test: growth inhibition call (relative growth <= 0.2); conditions: 50 µM

| Compound | cytotoxicity call (HSkMC) | growth inhibition call (S. aureus RN4220) |
| --- | --- | --- |
| C[C@@H]1CN([C@@H](C)CO)C(=O)c2cc(NC(=O)Cc3cn(C)c4ccccc34)ccc2O[C@H]1CN(C)Cc1ccc(Oc2ccccc2)cc1 | inactive | inactive |
| O=C(NCCCn1ccnc1)C(=O)NC[C@H]1OCCN1S(=O)(=O)c1ccc(F)cc1 | inactive | inactive |
| CC(C)NC(=O)Nc1ccc2c(c1)C(=O)N([C@@H](C)CO)C[C@@H](C)[C@H](CN(C)C(=O)Nc1ccc(F)cc1)OCCCC[C@@H](C)O2 | inactive | inactive |
| CC(C)CC#Cc1ccc2c(c1)O[C@H](CN(C)Cc1cncnc1)[C@@H](C)CN([C@@H](C)CO)S2(=O)=O | inactive | inactive |
| C[C@@H]1CN([C@H](C)CO)C(=O)c2cc(NC(=O)NC3CCCCC3)ccc2O[C@@H](C)CCCCO[C@@H]1CN(C)S(=O)(=O)c1ccc(F)cc1 | inactive | inactive |
| C[C@@H]1CN([C@@H](C)CO)C(=O)c2cc(NS(=O)(=O)c3cccs3)ccc2O[C@@H](C)CCCCO[C@@H]1CN(C)C(=O)NC1CCCCC1 | inactive | inactive |
| C[C@@H]1CN([C@H](C)CO)C(=O)c2cc(NC(=O)Nc3cccc4ccccc34)ccc2O[C@@H]1CN(C)Cc1ccc(Cl)c(Cl)c1 | inactive | inactive |
| NC(=O)N1C(=O)[C@H]2[C@H](C1=O)[C@H]1C=C(c3ccc(CO)cc3)[C@@H]2[C@@H](C2CC2)N1Cc1cc2c(cc1Br)OCO2 | inactive | inactive |
| Cc1ccc(O)c(C(C)(C)C)c1 | inactive | inactive |
| C[C@@H]1CCCCO[C@@H](CN(C)CC2CCCCC2)[C@@H](C)CN([C@@H](C)CO)C(=O)c2cc(N(C)C)ccc2O1 | inactive | inactive |
| CC(=O)c1ccc2c(c1)N(CCCN1CCN(CCO)CC1)c1ccccc1S2.O=C(O)C=CC(=O)O | inactive | inactive |
| C[C@@H]1CCCCO[C@H](CN(C)C(=O)C2CCCCC2)[C@H](C)CN([C@H](C)CO)C(=O)c2cc(NC(=O)c3ccccc3)ccc2O1 | inactive | inactive |
| CCCNC(=O)N1C[C@H](O)COC[C@H]2O[C@@H](CC(=O)N3CCN(C)CC3)CC[C@@H]21 | inactive | inactive |
